Results on 94 compounds are retold here after PubChem BioAssay AID1645882 (National Center for Advancing Translational Sciences (NCATS), 2021).

The campaign covered roughly 16,000 compounds. About 120 (0.75%) were called active. Another 4% or so got no clear call; they are omitted. Calls come from the whole dose curve; as a rule, active = well fitted inhibition curve with a large enough effect; inconclusive = small, poorly fitted or top-dose-only effect; inactive = no such curve, though single readings can be large or run the other way. This is one part of the list.

Chain of UniProt O95398 (O95398 whole entry, looked up): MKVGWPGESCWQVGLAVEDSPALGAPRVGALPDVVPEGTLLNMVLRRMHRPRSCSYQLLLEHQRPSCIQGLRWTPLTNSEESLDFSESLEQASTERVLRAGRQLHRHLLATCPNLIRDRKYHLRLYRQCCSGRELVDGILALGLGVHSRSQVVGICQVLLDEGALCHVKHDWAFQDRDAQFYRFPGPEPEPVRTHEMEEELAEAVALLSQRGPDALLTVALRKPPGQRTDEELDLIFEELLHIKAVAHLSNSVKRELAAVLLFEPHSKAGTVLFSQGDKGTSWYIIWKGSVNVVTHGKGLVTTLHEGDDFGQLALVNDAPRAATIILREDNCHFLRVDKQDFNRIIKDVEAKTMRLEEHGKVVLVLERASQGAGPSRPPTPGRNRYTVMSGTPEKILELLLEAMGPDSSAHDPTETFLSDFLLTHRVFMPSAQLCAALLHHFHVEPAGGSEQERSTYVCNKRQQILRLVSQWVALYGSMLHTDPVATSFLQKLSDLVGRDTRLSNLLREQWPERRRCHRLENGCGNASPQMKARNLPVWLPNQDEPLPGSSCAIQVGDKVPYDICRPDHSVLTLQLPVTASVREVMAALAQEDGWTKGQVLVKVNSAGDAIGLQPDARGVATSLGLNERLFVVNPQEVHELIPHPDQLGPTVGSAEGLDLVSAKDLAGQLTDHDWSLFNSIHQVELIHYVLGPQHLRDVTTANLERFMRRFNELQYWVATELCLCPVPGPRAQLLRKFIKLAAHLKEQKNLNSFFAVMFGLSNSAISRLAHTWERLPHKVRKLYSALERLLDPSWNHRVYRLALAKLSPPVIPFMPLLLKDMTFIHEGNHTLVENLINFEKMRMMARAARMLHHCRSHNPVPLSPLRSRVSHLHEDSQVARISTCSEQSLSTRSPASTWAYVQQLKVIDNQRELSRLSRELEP

For this test, the target named is Rap guanine nucleotide exchange factor 3 (Homo sapiens) (UniProt O95398). In words: Validation qHTS for antagonist of cAMP-regulated guanine nucleotide exchange factor 3 (EPAC1).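 Note: plate controls were DMSO for no effect and ATA control for full effect; nearly all actives have a fitted effect of over 75% in size.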 The conditions noted are these: EPAC1 Rap1B-BODIPY-GDP exchange, fluorescence; series mostly up to 150 µM; activity change, negative = inhibition: at the top concentration. The gist of the method:
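Nucleotide exchange followed as fluorescence loss when BODIPY-GDP leaves Rap1B (480 nm excitation, 540 nm emission), read at 5 min intervals over 30 min. Reaction: 100 nM EPAC1, 250 nM RAP1B-BODIPY-GDP, 50 uM GDP; ATA and DMSO define normalization.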
Take `CO/N=C(\C(=O)N[C@@H]1C(=O)N2C(C(=O)O)=C(C[N+]3(C)CCCC3)CS[C@H]12)c1csc(N)n1`: the “activity change, negative = inhibition” value was inactive: 12.6%.
In the case of `CCOC(=O)[C@H](CCc1ccccc1)N[C@@H](C)C(=O)N1CCC[C@H]1C(=O)O` it was inactive: 29.3%.
Under `COC(=O)c1ccccc1-c1cc(C)cc2c1OC(CNC(=O)c1cnc(C)cn1)C2` (centres undefined) stands inactive: 1.45%; under `O=C1CC2(CCCC2)CC(=O)N1CCNCC1COc2ccccc2O1` (centres undefined), inactive: 24.9%; under `CCCCOc1cc(C[C@@H]2CNC(=O)N2)ccc1OC`, inactive: 4.97%.
On to `Cc1cc(Cn2cnc3c2C[C@@H](C(=O)O)N(C(=O)C(c2ccccc2)c2ccccc2)C3)ccc1N(C)C`, for which the “activity change, negative = inhibition” value was inactive: -1.62%.
Under `NC[C@@H]1O[C@H](c2ccccc2)Cc2c1ccc(O)c2O` stands “inactive”.
In the case of `Cc1nc2ccc(CN(C)c3ccc(C(=O)N[C@@H](CCC(=O)O)C(=O)O)s3)cc2c(=O)[nH]1` it was “inactive”; in that of `Cc1ccc(CN2CCC(C3(c4ccccn4)NC(=O)N(CC4CCCO4)C3=O)CC2)cc1C` (centres undefined), inactive: 3.7%.
In the case of `CC(=O)C[C@H]1c2cc(F)ccc2S(=O)(=O)N1c1ccc(N(C)C)cc1` it was inactive: 10.6%; in that of `CCCCCOc1ccc(C2SC(=O)NC2=O)cc1OCC` (centres undefined), inactive: 33.7%; in that of `CNc1ncnc2c1ncn2[C@H]1C[C@H](OP(=O)(O)O)[C@H](COP(=O)(O)O)O1`, inactive: 3.15%.
Regarding `CC(C(=O)O)c1ccc(/C=C2\CCCCC2=O)cc1` (centres undefined), the “activity change, negative = inhibition” value was inactive: 45.8%.
Under `O=C(c1cccc(F)c1)N1CCC[C@@]2(CCN(c3cccc(-c4ccccc4)c3)C2)C1` stands inactive: 11.6%; under `CC(=O)O[C@H]1C[C@H]2CC[C@@H]3[C@H]4C[C@@H]([N+]5(C)CCCCC5)[C@@H](OC(C)=O)[C@]4(C)CC[C@@H]3[C@@]2(C)C[C@@H]1[N+]1(C)CCCCC1`, inactive: 9.56%; under `Cc1ncc2c(c1CNC(=O)c1ccc3c(c1)OCO3)CCN(C(=O)c1cc3ccccc3o1)C2`, inactive: 15.9%.
Under `NCCS(=O)O` stands “inactive”; under `Cc1oc(-c2ccccc2NC(=O)C2CCC2)nc1CNC(=O)c1ccc(C#CC(C)(C)O)cc1`, inactive: 3.45%; under `O=C(O)CCC/C=C\C[C@@H]1CO[C@H](C(F)(F)F)O[C@@H]1c1ccccc1O`, inactive: -3.14%.
Under `COC(=O)c1ccc(CN2C[C@H](Sc3ccccn3)C[C@H]2C(=O)N(C)C)cc1` stands inactive: 2.99%; under `CC[N+]1(CC(=O)c2ccc(Br)cc2)CCCCC1`, inactive: 2.16%.
As to `N#Cc1ccc(CN2CC3(CCN(C(=O)c4csnn4)CC3)C2)cc1`, the “activity change, negative = inhibition” value was inactive: 13.8%.
In the case of `COc1ccc(-c2cc(C(F)F)nn2-c2ccc(S(N)(=O)=O)cc2)cc1F` it was inactive: 11.5%.
Take `COC(=O)c1ccccc1C(=O)N1CCc2c(cnc(C)c2CNC(=O)c2ccccc2F)C1`: the “activity change, negative = inhibition” value was inactive: 19%.
With `COc1cc(-c2cnc3ccccc3c2)cc2c1OCCN(C(=O)CCn1nc(C)cc1C)C2`, the “activity change, negative = inhibition” value was inactive: 8.69%.
Under `CCCCCc1ccc(-c2cn(CN3C(=O)c4ccccc4C3=O)nn2)cc1` stands inactive: -2.37%; under `COc1ccc(CNc2cc(-c3ccccc3Cl)ncn2)c(OC)c1`, inactive: -9.31%.
Under `Cn1cc(-c2nc3cnc(Oc4cccc(Cl)c4)nc3n(C3CC3)c2=O)c2ccccc21` stands inactive: 11.6%.
In the case of `CN(C)c1ncc2nc(CCc3ccccc3)c(=O)n(CCC#N)c2n1` it was inactive: -4.32%; in that of `CC(Oc1ccccc1)C(=O)N[C@@H]1C(=O)N2[C@@H]1SC(C)(C)[C@@H]2C(=O)O` (some centres undefined), inactive: -7.61% [at 75.8 µM].
Consider `CC(C)NC[C@H](O)c1ccc(O)c(O)c1`, for which the activity change, negative = inhibition entry is “inactive”.
In the case of `COc1cccc(CN2CCC3(CCC(CNC(=O)c4cc(C)nn4C)O3)CC2)c1OC` (centres undefined), the “activity change, negative = inhibition” value was inactive: 24.8%.
Under `COc1ccc(N2C(=O)[C@@H]3C[C@H]2CN3Cc2cccn2-c2nccs2)cc1Cl` stands inactive: 10.6%; under `CC(=O)O[C@](C)(CCC=C(C)C)C1CC=C(C)CC1` (some centres undefined), inactive: 17.9%.
For the compound `Cc1cc2c(c(-c3cnccn3)c1)OC(CNC(=O)c1cc(Cl)ccc1F)C2` (centres undefined), the “activity change, negative = inhibition” value is inactive: -4.59%.
Under `Cc1ncc2c(c1CNS(=O)(=O)c1cccs1)CCN(C(=O)/C=C/c1ccc(F)cc1F)C2` stands inactive: 5.99%.
For the compound `Cc1cc(C(=O)NCc2nnc3n2CCN(Cc2ccc(C)c(C)c2)CC3)c(C)o1`, the “activity change, negative = inhibition” value was inactive: 12.4%.
For `CC(=O)c1ccccc1C(=O)NCC1Cc2cccc(-c3cccnc3)c2O1` (centres undefined), the “activity change, negative = inhibition” value was inactive: 4.77%.
In the case of `O=C(c1cncs1)N(Cc1cc2cc3c(cc2nc1N1CCOCC1)CCC3)CC1CCCO1` (centres undefined) it was inactive: 6.36%; in that of `COc1ccc(C(=O)NCc2ccc(OCCN(C)C)cc2)cc1OC`, inactive: 8.43%; in that of `O=C(Nc1ncc([N+](=O)[O-])s1)c1cccs1`, inactive: 6.62%.
In the case of `CN1[C@@H]2CC[C@H]1CC(NC(=O)n1c(=O)[nH]c3ccccc31)C2` (some centres undefined) it was inactive: 36.4%; in that of `N[C@@H](C(=O)N[C@@H]1C(=O)N2C(C(=O)O)=C(Cl)CS[C@H]12)c1ccccc1`, inactive: 12.9%.
Under `Cc1ccc2c(c1)ncc[n+]2CC(=O)c1ccc(F)cc1` stands inactive: -22.4%; under `COc1ccc(CCC(=O)c2c(O)cc(OC3OC(CO)C(O)C(O)C3O[C@@H]3OC(C)C(O)C(O)C3O)cc2O)cc1O` (some centres undefined), inactive: -2.88%; under `COc1cccc(Cn2c(=O)c(-c3ccccc3)nc3cnc(N4CCN(C)CC4)nc32)c1`, inactive: 5%.
For `COc1cc(C[C@@H]2NCCc3cc(O)c(O)cc32)cc(OC)c1OC`, the “activity change, negative = inhibition” value is inactive: 35%.
In the case of `COc1ccc(NC(=O)[C@@H]2CC=C[C@@H]3CCN(C4CC4)C(=O)[C@@H]32)cc1` it was inactive: 15.5%; in that of `COc1ccc(-n2c(CNC(=O)c3ccccc3C(F)(F)F)nnc2SC)cc1`, inactive: 4.49%.
Under `CN1CCN(c2ccnc(-c3cccc(NS(C)(=O)=O)c3)n2)CC1` stands inactive: 23.8%; under `Cc1ccc2c(CC(=O)N3CCOc4ccc(CN5CCOCC5)cc4C3)cc(=O)oc2c1`, inactive: 8.61%.
Under `Cc1c(C(=O)NCCC2CCCN2C)cnn1-c1nccc(-c2ccccc2F)n1` (centres undefined) stands inactive: 21.4%.
`CN(C)c1ncc2nc(-c3cc(F)cc(F)c3)c(=O)n(C)c2n1`: the “activity change, negative = inhibition” value was inactive: 2.78%.
Under `CC(C)Cc1nc2cc(NS(=O)(=O)N(C)C)cc(C(=O)N3CCc4ccccc4C3)c2n1C` stands inactive: 19.2%; under `COc1ccc(-n2c(=O)c(CCc3ccccc3)nc3cnc(N4CCN(C)CC4)nc32)cc1`, inactive: 4.57%; under `c1cc(NC2CC2)nc(-c2ccoc2)n1`, inactive: 7.33%.
Turning to `CC(C)CN(C[C@@H](OP(=O)(O)O)[C@H](Cc1ccccc1)NC(=O)O[C@H]1CCOC1)S(=O)(=O)c1ccc(N)cc1`, the “activity change, negative = inhibition” value is inactive: -5.44%.
Under `C[C@@H](CC#N)CN1CC[C@H](C(C)(C)C)CCC1=O` stands inactive: 0.636%; under `O=c1c(CCc2ccccc2)nc2cncnc2n1-c1ccccc1`, inactive: -13.7%.
In the case of `COc1cccc2oc(-c3ccc(O)cc3)cc(=O)c12` it was inactive: 14.9%; in that of `CC(C)(C)c1ccc(C(=O)C[N+]2(C)CCCc3ccccc32)cc1` (centres undefined), inactive: 8.76%; in that of `Cn1c([N+](=O)[O-])cnc1COC(N)=O`, inactive: 11.2%.
Under `NC(N)=O` stands “inactive”; under `Cc1cccc(C)c1NC(=O)CN1CCCCCC1`, inactive: 5.93%.
`O=C(CN1Cc2ccccc2OC(c2ccsc2)C1)NCC1OCCc2ccccc21` (centres undefined): the “activity change, negative = inhibition” value was inactive: -6.17%.
Under `Cc1ccc(SC[C@H](C)CN2CC[C@H](NC(=O)OCc3ccccc3)CCC2=O)cc1` stands inactive: 0.485%.
Under `CN[C@H](CC(C)C)C(=O)N[C@H]1C(=O)N[C@@H](CC(N)=O)C(=O)N[C@@H]2C(=O)N[C@H]3C(=O)N[C@H](C(=O)N[C@H](C(=O)O)c4cc(O)cc(O)c4-c4cc3ccc4O)[C@H](O)c3ccc(c(Cl)c3)Oc3cc2cc(c3O[C@@H]2O[C@H](CO)[C@@H](O)[C@H](O)[C@@H]2O[C@H]2C[C@](C)(N)[C@H](O)[C@H](C)O2)Oc2ccc(cc2Cl)[C@H]1O` stands inactive: -5.37% [at 75.8 µM]; under `COC(=O)c1cc(CNC(=O)c2cccc(C)c2)cc(NC(=O)c2ccncc2)c1`, inactive: 20%; under `CCCCCCCCCCCCCCCCCC(=O)OC(CC(=O)O)C[N+](C)(C)C` (centres undefined), inactive: -7.32% [at 75.8 µM].
Under `COC(=O)N1CCC2(CC1)CN(C(=O)Nc1cccc(C#N)c1)C2` stands inactive: 33.2%; under `COc1ccccc1C(=O)N1CCCC(c2nc(SCCN3CCOCC3)ncc2C)C1` (centres undefined), inactive: 5.25%.
Turning to `Cn1cccc1C(=O)N1CCC2(CCCN(c3ccc(-c4ccccc4)cc3)C2)CC1`, the “activity change, negative = inhibition” value was inactive: 8.59%.
Under `CN(C)CCCO[C@@H]1[C@H]2OC(C)(C)O[C@H]2O[C@@H]1C(O)CO` (some centres undefined) stands inactive: 16.6%; under `O=C1c2ccccc2S(=O)(=O)N1CCCCN1CCN(c2ncccn2)CC1`, inactive: -14.6%; under `Cc1c(C(=O)NC2CCCCC2)sc2ncnc(NCCN(C)C)c12`, inactive: 13.7%.
In the case of `COc1ccc(O)c(CN2CCCN(c3nc(C)c4cc(C)c(C)cc4n3)CC2)c1` it was inactive: 7.44%.
Under `Cc1ccc(S(=O)(=O)O)cc1C` stands inactive: 11.8%.
As for `COc1ccc(-c2cn(Cc3cccc(OC)c3)nn2)cc1`, the “activity change, negative = inhibition” value is inactive: -1.88%.
For the compound `CC(=O)OC1CCC2(C)C(=CC=C3C2CCC2(C)C3CCC2C(C)/C=C/C(C)C(C)C)C1(C)C` (centres undefined), the “activity change, negative = inhibition” value was inactive: -7.1%.
Under `Clc1ccc(C(c2ccc(Cl)cc2)n2cc[n+](CC(OCc3ccc(Cl)cc3Cl)c3ccc(Cl)cc3Cl)c2)cc1` (centres undefined) stands inactive: -6.34% [at 75.8 µM]; under `Cc1nc2cnc(N(C)C)nc2n(C)c1=O`, inactive: 10.2%; under `CN(c1ccccc1)S(=O)(=O)c1ccccc1Br`, inactive: -2.13%.
Under `COc1ccc2[nH]cc(CCNc3ncncc3-c3ccccc3C)c2c1` stands inactive: -17.6%; under `COc1ccc(Oc2ncc3nc(C)c(=O)n(CCc4ccccc4)c3n2)cc1`, inactive: 11.8%; under `CCOC(=O)CCC(=O)O[C@H]1C(O[C@@H]2C(C)[C@H](O[C@H]3C[C@@](C)(OC)C(O)C(C)O3)C(C)C(=O)OC(CC)[C@@](C)(O)C(O)[C@H](C)C(=O)C(C)C[C@]2(C)O)OC(C)CC1N(C)C` (some centres undefined), inactive: -2.91%.
In the case of `Cc1ccc2[nH]c(C(=O)NCc3nc(-c4cccc(NC(=O)c5cc(C)oc5C)c4)oc3C)cc2c1` it was inactive: 9.71%; in that of `O=C(O)CC1CC(c2ccccc2)=NO1` (centres undefined), inactive: 4.74% [at 75.8 µM]; in that of `CC(N)C12CC3CC(CC(C3)C1)C2` (centres undefined), inactive: 13.7%.
On to `CCCCc1ccc2nc(NC(=O)OC)[nH]c2c1`, for which the “activity change, negative = inhibition” value is inactive: 8.5% [at 75.8 µM].
In the case of `COc1ccc(CNC(=O)[C@@H]2CC=C[C@@H]3CCN(C4CC4)C(=O)[C@@H]32)cc1` it was inactive: 4.53%.
Under `COc1cc2oc(=O)c3c4c(cc5ccc(c1CCN(C)C)c2c53)OCO4` stands inactive: 23%.
Under `CS(=O)(=O)Nc1ccc([N+](=O)[O-])cc1OC1CCCCC1` stands “inactive”.
As to `NC(N)=NCC1COc2ccccc2O1` (centres undefined), the “activity change, negative = inhibition” value is inactive: 2.96%.
For the compound `COc1ccc2[nH]cc(CCNc3cc(-c4ccc(C(=O)N(C)C)cc4)ncn3)c2c1`, the “activity change, negative = inhibition” value is inactive: -13%.
